Whole data set: some 81,000 sequences, median “one-hybrid fitness for binding NBS DNA” near -0.1, cut for the highest 2% near 0.36. Some of the results follow.
B1: Caulobacter ParB omega fusion; a variant is named by its letters at X, in order, B8GW30 (parent)
chain: MESVVVGEPGMSEGRRGLGRGLSALLGEVDAAPAQAPGEQLGGSREAPIEILQRNPDQPRRTFREEDLEDLSNSIREKGVLQPILVRPSPDTAGEYQIVAGERAWRAAQRAGLKTVPIMVRELDDLAVLEIGIIENVQRADLNVLEEALSYKVLMEKFERTQENIAQTIGKSXSHVANXMRLLXLPDEVQSYLVSGELTAXHARAIAAAADPVALAKQIIEGGLSVRETEALARKAPNLSAGKSKGGRPPRVKDTDTQALESDLSSVLGLDVSIDHRGSTGTLTITYATLEQLDDLCNRLTRGI

Variants of: B1
Assay: one-hybrid fitness for binding NBS DNA (the Noc-binding site; scaled: cognate 1, non-cognate 0); higher = stronger binding
Conditions: with NBS DNA site
Method in brief: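 Values were rescaled so that cognate is 1 and non-cognate is 0. Each is a fitness, the log change in a variant's read ratio to wild type from Illumina reads of plasmids before and after selection, with three replicate libraries pooled and variants under 10 reads dropped. Selection of the Caulobacter ParB libraries, four specificity codons randomised, used E. coli USO with a HIS3 reporter, site 19 bp from the promoter, on M9-minus-histidine with 0.1 mM IPTG and 5 mM 3-AT for 48 hours at 37°C.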

one-hybrid fitness for binding NBS DNA, 0.456:
QSMR

one-hybrid fitness for binding NBS DNA, 0.297:
QMQA

one-hybrid fitness for binding NBS DNA, ≤ 0.2:
PWKY
PARI
LQML
FLTE
LSCG
RLWI
CYWG
AFIA
CVSP
PFQQ
TEAW
SQRM
TNMW
KEAR
PTKT
VKYT
GVPS
RTCW
RAEC
YATV
CPSR
TNWC
RAQE
YNKI
ITAP
NSWC
KTLC
AYDC
CTWG
TCAS
MAFC
ILKA
AMKP
DMGC
YRNF
ALDW
KAWV
APLC
YSLS
MKMR
QNPG
SQVD
VHRS
RNLP
GFTC
RGWV
VQYT
WLNW
KFKW
AQTN
CEAT
RLGA
QCLN
CEPN
CYWR
YYIT
QIQN
RPMV
TMSR
MYSP
ADST
TPRQ
IIGT
YHGY
CTLI
TVPW
VTLL
GWST
VGCL
MMTD
VIRG
PKFR
SLKF
HVLR
HRVH
VKRY
GYHR
NCEG
LSHC
WQYG
GVDE
PLVW
YYIF
ASHG
SSYL
EKAR
EMEV
PFQG
RPKR
NPQD
PNWC
RWDG
GKVS
LTLG
DNPV
RFNA
QACA
EDWG
PSAG
RRNP
RIDC
ATRV
EPYL
WYSC
KSVS
CHKP
MANT
RTVN
ACAY
SHTF
LKVS
QGHL
PDKC
MPFG
SLDN
PHSM
GNCC
WRLV
QGLK
TEVT
HQAA
EWQR
SIVF
QFDM
RAPD
QHAL
IHYA
AASR
SHWS
MLAC
TKSS
GTEM
PACV
TFRY
VLEI
FCYG
RFAD
ERWR
QKPP
QNES
WCPG
QTIV
DLSP
TAYP
TYYA
KIFR
QLPS
LHMV
ICNR
PTSG
EYSS
ALWC
TWNV
GSAM
LASC
KCML
WYVR
QDRI
SHAS
ILVP
HCKL
DASQ
VQKV
IIMS
KGCT
WALR
HHHI
DTAR
HVVC
NFRT
TTCR
EKLT
WLFT
QPTE
WLCG
QAIY
KCTI
RCDH
AMIC
GLRV
AEPD
PSGV
LVHT
HLHM
QLHN
EMRS
YMAE
RTYV
TKVW
HDNM
YQIW
PRMI
LKAC
AAET
VQVS
SGLL
PAQV
VRKI
LNPS
LQHR
EPES
LWDR
RHMY
EGSY
IFKG
RSTE
WIPH
IHKG
ARMH
HAIS
QFYM
MIFG
PVAE
SHMK
AYHA
NMLG
HLQF
RMCE
REAS
RWQW
KTMG
GYFC
ESNW
PGEG
IDVT
LQLN
RPCT
HTNC
EPMR
STQK
HPTT
TLQF
AKAV
VGSC
PRMC
GAGT
PFPR
DSRT
KFHG
CFSR
DSKA
GMRD
LNAM
CERM
FDAG
IYVY
IRYG
CYEG
RHPR
QPAI
TQAN
TGTT
QHSQ
RASL
NAHS
QVNP
ALSD
FNLT
IQPW
NMTE
SPAQ
NWTG
MRSS
CRCF
HHYC
GGVW
PRTT
TAVG
MVKM
FGSG
ACQG
DSYK
VDNL
KVRL
KSKY
MYYG
LYAA
ILYV
KVYM
SDYW
RVIV
IHPG
KLGA
QWAA
LIRV
MADA
RRME
RMNC
MQLG
QNRM
QPGR
WHHG
SKAN
MPMW

one-hybrid fitness for binding NBS DNA, 0.289:
RNNT

one-hybrid fitness for binding NBS DNA, 0.295:
QLDR

one-hybrid fitness for binding NBS DNA, 0.474:
RCQS

one-hybrid fitness for binding NBS DNA, 0.659:
QRSS

one-hybrid fitness for binding NBS DNA, 0.341:
RQRH

one-hybrid fitness for binding NBS DNA, 0.364:
FAFR

one-hybrid fitness for binding NBS DNA, 0.37:
QSFR

one-hybrid fitness for binding NBS DNA, 0.293:
QTHK

one-hybrid fitness for binding NBS DNA, 0.305:
TRTT

one-hybrid fitness for binding NBS DNA, 0.598:
RMKS
